Reference: patent publication US4309425A (priority 1980, dated 1982)
Where two headings read alike, the source gives them in different places.

What was measured:
Helminthosporium oryzae = test: rice Helminthosporium seed treatment test; type: in vivo; conditions: 1.3 g per kilogram of seed, 18 days
tomato seedlings = test system: tomato seedlings; parameters: key: B = burn; conditions: 20 ppm
Description: (§1) Compounds of this invention are dissolved in acetone in an amount equal to 6% of the final volume and then suspended at a concentration of 20 ppm in purified water containing 25 ppm of the surfactant Alkanol® XC (sodium alkyl naphthalene sulfonate). This suspension is sprayed to the point of run-off on tomato seedlings. The following day, the plants are inoculated with a spore suspension of the fungus Phytophthora infestans and incubated in a growth room for 4 days. Disease ratings are then made. As shown in the following table, several of the compounds of this invention provided excellent disease control, as treated plants had no late blight lesions in contrast to untreated plants which were covered with lesions. Phytotoxicity in the form of foliar burn was observed on some of the plants in association with disease control.
as §1, with “day, 1/2 inch of simulated rainfall is applied to the foliage of the plants. When the foliage is dry,” for “day,”, “most” for “several”, “had little or” for “had”
as §1, with “seedlings. When the foliage is dry, the plants are exposed to 3500 foot candles of light from a xenon arc source for a period of 16 hours. This light source approximates the spectrum of natural sunlight, and is used to assess photostability of the compounds of this invention on plant foliage.” for “seedlings.”, “most” for “several”, “had little or” for “had”

| Structure (SMILES) | % Control of rice Helminthosporium in a seed treatment test (Helminthosporium oryzae) [%] | Phytotoxicity (tomato seedlings; photostability test) | Phytotoxicity (tomato seedlings; preventive test) | Phytotoxicity (tomato seedlings; residual wash-off test) |
| --- | --- | --- | --- | --- |
| O=C1CCCN1SN(c1cc(C(F)(F)F)ccc1Cl)c1c([N+](=O)[O-])cc([N+](=O)[O-])cc1C(F)(F)F | 80 | B | B | B |
| COC(=O)CN(SN(c1cc(C(F)(F)F)ccc1Cl)c1c([N+](=O)[O-])cc([N+](=O)[O-])cc1C(F)(F)F)S(=O)(=O)c1ccc(C)cc1 | 60 | – | – | – |
| Cc1ccc(S(=O)(=O)N(SN(c2cc(C(F)(F)F)ccc2Cl)c2c([N+](=O)[O-])cc([N+](=O)[O-])cc2C(F)(F)F)C(C)C)cc1 | 70 | – | B | B |
| CCCCN(SN(c1cc(C(F)(F)F)ccc1Cl)c1c([N+](=O)[O-])cc([N+](=O)[O-])cc1C(F)(F)F)S(=O)(=O)N(C)C | 80 | B | B | B |
| Cc1ccc(S(=O)(=O)N(C)SN(c2cc(C(F)(F)F)ccc2Cl)c2c([N+](=O)[O-])cc([N+](=O)[O-])cc2C(F)(F)F)cc1 | 70 | B | B | B |
| CN(SN(c1cc(C(F)(F)F)ccc1Cl)c1c([N+](=O)[O-])cc([N+](=O)[O-])cc1C(F)(F)F)S(=O)(=O)c1ccc2ccccc2c1 | 100 | B | B | B |
| Cc1ccc(S(=O)(=O)N(C)SN(c2c(F)cc(F)cc2F)c2c([N+](=O)[O-])cc([N+](=O)[O-])cc2C(F)(F)F)cc1 | 90 | – | – | – |
| CCCCN(SN(c1cc(C(F)(F)F)ccc1Cl)c1c([N+](=O)[O-])cc([N+](=O)[O-])cc1C(F)(F)F)S(=O)(=O)c1ccccc1C | 70 | B | B | B |
| CCCCN(SN(c1cc(C(F)(F)F)ccc1Cl)c1c([N+](=O)[O-])cc([N+](=O)[O-])cc1C(F)(F)F)S(=O)(=O)c1ccccc1 | 20 | B | B | B |
| CCCCN(SN(c1cc(C(F)(F)F)ccc1Cl)c1c([N+](=O)[O-])cc([N+](=O)[O-])cc1C(F)(F)F)S(=O)(=O)c1ccc(C)cc1 | 40 | B | B | B |
